# Experimental data published in the supplement of paper PMC8728848.
# The other results are listed elsewhere or left out.
# Key:
# Assay in all cases: glycan array binding signal (z-score within array); higher = stronger binding
# Settings in all cases: glycan notation: IUPAC condensed, linker removed
# [1] = biological target: Fuc(a1-2)[GalNAc(b1-3)]Gal
# Summary of the method: (§1)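 The Consortium for Functional Glycomics database supplied 3228 glycan arrays, of which those lacking an available protein sequence were dropped. The binding signal, a within-array Z-score, was averaged across arrays of the same protein sequence and across linkers. Negative scores can be read as non-binding.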
# [2] = biological target: Fuc(a1-3)GlcNAc
# Summary of the method: as §1
# [3] = biological target: Fuc(a1-3)[Gal(b1-4)]Glc6S
# Summary of the method: as §1
# [4] = biological target: Fuc(a1-3)[Gal(b1-4)]GlcNAc
# Summary of the method: as §1
# [5] = biological target: Fuc(a1-3)[Gal(b1-4)]GlcNAc(b1-2)Man
# Summary of the method: as §1
# [6] = biological target: Fuc(a1-3)[Gal(b1-4)]GlcNAc(b1-2)Man(a1-3)[Fuc(a1-3)[Gal(b1-4)]GlcNAc(b1-2)Man(a1-6)]Man(b1-4)GlcNAc(b1-4)GlcNAc
# Summary of the method: as §1
# [7] = biological target: Fuc(a1-3)[Gal(b1-4)]GlcNAc(b1-2)Man(a1-3)[Fuc(a1-3)[Gal(b1-4)]GlcNAc(b1-2)Man(a1-6)]Man(b1-4)GlcNAc(b1-4)[Fuc(a1-6)]GlcNAc
# Summary of the method: as §1
# [8] = biological target: Fuc(a1-3)[Gal(b1-4)]GlcNAc(b1-3)Gal(b1-3)[Fuc(a1-4)]GlcNAc
# Summary of the method: as §1
# [9] = biological target: Fuc(a1-3)[Gal(b1-4)]GlcNAc(b1-3)Gal(b1-4)[Fuc(a1-3)]GlcNAc
# Summary of the method: as §1
# [10] = biological target: Fuc(a1-3)[Gal(b1-4)]GlcNAc(b1-3)Gal(b1-4)[Fuc(a1-3)]GlcNAc(b1-3)Gal(b1-4)[Fuc(a1-3)]GlcNAc
# Summary of the method: as §1
# [11] = biological target: Fuc(a1-3)[Gal(b1-4)]GlcNAc(b1-3)GalNAc
# Summary of the method: as §1
# [12] = biological target: Fuc(a1-3)[Gal(b1-4)]GlcNAc(b1-6)GalNAc
# Summary of the method: as §1
# [13] = biological target: Fuc(a1-3)[Gal(b1-4)]GlcNAc(b1-6)[Gal(b1-3)GlcNAc(b1-3)]Gal(b1-4)Glc
# Summary of the method: as §1
# [14] = biological target: Fuc(a1-3)[Gal(b1-4)]GlcNAc6S
# Summary of the method: as §1
# [15] = biological target: Fuc(a1-3)[Gal3S(b1-4)]Glc
# Summary of the method: as §1
# [16] = biological target: Fuc(a1-3)[Gal3S(b1-4)]GlcNAc
# Summary of the method: as §1
# [17] = biological target: Fuc(a1-3)[Gal3S(b1-4)]GlcNAc6S
# Summary of the method: as §1
# [18] = biological target: Fuc(a1-3)[GalNAc(b1-4)]GlcNAc
# Summary of the method: as §1
# [19] = biological target: Fuc(a1-3)[GalNAc(b1-4)]GlcNAc6S
# Summary of the method: as §1
# [20] = biological target: Fuc(a1-4)GlcNAc
# Summary of the method: as §1
# [21] = biological target: Fuc(b1-3)GlcNAc
# Summary of the method: as §1
# [22] = biological target: Gal(a1-2)Gal
# Summary of the method: as §1
# [23] = biological target: Gal(a1-3)Gal
# Summary of the method: as §1
# [24] = biological target: Gal(a1-3)Gal(b1-3)GlcNAc
# Summary of the method: as §1
# [25] = biological target: Gal(a1-3)Gal(b1-3)GlcNAc(b1-2)Man
# Summary of the method: as §1
# [26] = biological target: Gal(a1-3)Gal(b1-3)GlcNAc(b1-2)Man(a1-3)[Gal(a1-3)Gal(b1-3)GlcNAc(b1-2)Man(a1-6)]Man(b1-4)GlcNAc(b1-4)GlcNAc
# Summary of the method: as §1
# [27] = biological target: Gal(a1-3)Gal(b1-3)GlcNAc(b1-3)GalNAc
# Summary of the method: as §1
# [28] = biological target: Gal(a1-3)Gal(b1-3)GlcNAc(b1-6)GalNAc
# Summary of the method: as §1
# [29] = biological target: Gal(a1-3)Gal(b1-3)[Fuc(a1-4)]GlcNAc(b1-2)Man(a1-3)[Gal(a1-3)Gal(b1-3)[Fuc(a1-4)]GlcNAc(b1-2)Man(a1-6)]Man(b1-4)GlcNAc(b1-4)GlcNAc
# Summary of the method: as §1
# [30] = biological target: Gal(a1-3)Gal(b1-4)Glc
# Summary of the method: as §1
# [31] = biological target: Gal(a1-3)Gal(b1-4)GlcNAc
# Summary of the method: as §1
# [32] = biological target: Gal(a1-3)Gal(b1-4)GlcNAc(b1-2)Man
# Summary of the method: as §1
# [33] = biological target: Gal(a1-3)Gal(b1-4)GlcNAc(b1-2)Man(a1-3)[Gal(a1-3)Gal(b1-4)GlcNAc(b1-2)Man(a1-6)]Man(b1-4)GlcNAc(b1-4)GlcNAc
# Summary of the method: as §1
# [34] = biological target: Gal(a1-3)Gal(b1-4)GlcNAc(b1-3)GalNAc
# Summary of the method: as §1
# [35] = biological target: Gal(a1-3)Gal(b1-4)GlcNAc(b1-6)GalNAc
# Summary of the method: as §1
# [36] = biological target: Gal(a1-3)Gal(b1-4)[Fuc(a1-3)]GlcNAc
# Summary of the method: as §1
# [37] = biological target: Gal(a1-3)Gal(b1-4)[Fuc(a1-3)]GlcNAc(b1-2)Man(a1-3)[Gal(a1-3)Gal(b1-4)[Fuc(a1-3)]GlcNAc(b1-2)Man(a1-6)]Man(b1-4)GlcNAc(b1-4)GlcNAc
# Summary of the method: as §1
# [38] = biological target: Gal(a1-3)GalNAc
# Summary of the method: as §1
# [39] = biological target: Gal(a1-3)[Gal(a1-4)]Gal(b1-4)GlcNAc
# Summary of the method: as §1
# [40] = biological target: Gal(a1-4)Gal(b1-3)GlcNAc(b1-2)Man(a1-3)[Gal(a1-4)Gal(b1-3)GlcNAc(b1-2)Man(a1-6)]Man(b1-4)GlcNAc(b1-4)GlcNAc
# Summary of the method: as §1
# [41] = biological target: Gal(a1-4)Gal(b1-4)Glc
# Summary of the method: as §1
# [42] = biological target: Gal(a1-4)Gal(b1-4)GlcNAc
# Summary of the method: as §1
# [43] = biological target: Gal(a1-4)Gal(b1-4)GlcNAc(b1-2)Man(a1-3)[Gal(a1-4)Gal(b1-4)GlcNAc(b1-2)Man(a1-6)]Man(b1-4)GlcNAc(b1-4)GlcNAc
# Summary of the method: as §1
# [44] = biological target: Gal(a1-4)Gal(b1-4)GlcNAc(b1-3)Gal(b1-4)Glc
# Summary of the method: as §1
# [45] = biological target: Gal(a1-4)GlcNAc
# Summary of the method: as §1
# [46] = biological target: Gal(a1-6)Glc
# Summary of the method: as §1
# [47] = biological target: Gal(b1-2)Gal
# Summary of the method: as §1
# [48] = biological target: Gal(b1-3)Gal
# Summary of the method: as §1
# [49] = biological target: Gal(b1-3)Gal(b1-4)GlcNAc
# Summary of the method: as §1
# [50] = biological target: Gal(b1-3)GalNAc
# Summary of the method: as §1
# [51] = biological target: Gal(b1-3)GalNAc(a1-3)[Fuc(a1-2)]Gal(b1-4)Glc
# Summary of the method: as §1
# [52] = biological target: Gal(b1-3)GalNAc(a1-3)[Fuc(a1-2)]Gal(b1-4)GlcNAc
# Summary of the method: as §1
# [53] = biological target: Gal(b1-3)GalNAc(b1-3)Gal
# Summary of the method: as §1
# [54] = biological target: Gal(b1-3)GalNAc(b1-3)Gal(a1-4)Gal(b1-4)Glc
# Summary of the method: as §1
# [55] = biological target: Gal(b1-3)GalNAc(b1-4)Gal(b1-4)Glc
# Summary of the method: as §1
# [56] = biological target: Gal(b1-3)GalNAc(b1-4)[Neu5Ac(a2-3)]Gal(b1-4)Glc
# Summary of the method: as §1
# [57] = biological target: Gal(b1-3)GlcNAc
# Summary of the method: as §1
# [58] = biological target: Gal(b1-3)GlcNAc(a1-3)Gal(b1-4)GlcNAc
# Summary of the method: as §1
# [59] = biological target: Gal(b1-3)GlcNAc(a1-6)Gal(b1-4)GlcNAc
# Summary of the method: as §1
# [60] = biological target: Gal(b1-3)GlcNAc(b1-2)Man
# Summary of the method: as §1
binder,measurement,setting,value
CvGal2 (Crassostrea virginica) (protein) MGSSHHHHHHSSGLVPRGSHMRIREAGKRKDTTKVYQIPDGLFPGQQVMLRGRVPWGSKSFSINFSATPRMGEGDILFHLNPRPSEGVCIRNALLNGSWGAEEKWQPYFPFDDGRSFSVKIEVTNDAFRTFVNGRPFVDFLHRTDFRAGKYLTLREGAEYYDVIFQSKPNIPLTTAIHNGMRIGKTIRIRGMCTAQDGFAINFNDNRNNIYFHFNARPAQRTVVRNSYFGSWGNEETAISKEFPFYPFLYFYASFVCMEDKFAVYVNDEHFIDFAHRGNPNNISVLQIKGSVNVLDTECLEPMGEDAMTEVDSGLENGDLFVLNGLMTERGKTFAVNFLNGFTENDDIALHFNPRKSTGEVVLNSRYGGAWQSEEKVALPGVFWSNRPLQVKVETKRNKFKIYVNGVDLAKYKIRGNVEDVHAVQVKGDVFLLETLLLKRLMKPVWERLTGGIRPGTWVTLQGTPKKNWQQFVVNFALDDTLDGDIAFHFNVRRGARQVVRNHRQSGAWGREETVTPFFAFDSEATFEIVFFVKEEKFLIYFNGKLFFEFVHRVPVERITHIYMDGDCNFYEPEVVI,glycan array binding signal (z-score),[1],-0.033
same,glycan array binding signal (z-score),[2],-0.314
same,glycan array binding signal (z-score),[3],-0.332
same,glycan array binding signal (z-score),[4],-0.331
same,glycan array binding signal (z-score),[5],-0.323
same,glycan array binding signal (z-score),[6],-0.319
same,glycan array binding signal (z-score),[7],-0.333
same,glycan array binding signal (z-score),[8],-0.331
same,glycan array binding signal (z-score),[9],-0.335
same,glycan array binding signal (z-score),[10],-0.325
same,glycan array binding signal (z-score),[11],-0.324
same,glycan array binding signal (z-score),[12],-0.33
same,glycan array binding signal (z-score),[13],-0.072
same,glycan array binding signal (z-score),[14],-0.319
same,glycan array binding signal (z-score),[15],-0.337
same,glycan array binding signal (z-score),[16],-0.329
same,glycan array binding signal (z-score),[17],-0.334
same,glycan array binding signal (z-score),[18],-0.321
same,glycan array binding signal (z-score),[19],-0.338
same,glycan array binding signal (z-score),[20],-0.312
same,glycan array binding signal (z-score),[21],-0.333
same,glycan array binding signal (z-score),[22],-0.333
same,glycan array binding signal (z-score),[23],-0.333
same,glycan array binding signal (z-score),[24],-0.137
same,glycan array binding signal (z-score),[25],1.04
same,glycan array binding signal (z-score),[26],-0.259
same,glycan array binding signal (z-score),[27],0.213
same,glycan array binding signal (z-score),[28],0.505
same,glycan array binding signal (z-score),[29],-0.32
same,glycan array binding signal (z-score),[30],0.291
same,glycan array binding signal (z-score),[31],0.47
same,glycan array binding signal (z-score),[32],-0.023
same,glycan array binding signal (z-score),[33],3.52
same,glycan array binding signal (z-score),[34],-0.243
same,glycan array binding signal (z-score),[35],-0.257
same,glycan array binding signal (z-score),[36],-0.332
same,glycan array binding signal (z-score),[37],-0.329
same,glycan array binding signal (z-score),[38],-0.331
same,glycan array binding signal (z-score),[39],-0.287
same,glycan array binding signal (z-score),[40],-0.322
same,glycan array binding signal (z-score),[41],-0.306
same,glycan array binding signal (z-score),[42],-0.325
same,glycan array binding signal (z-score),[43],-0.336
same,glycan array binding signal (z-score),[44],-0.345
same,glycan array binding signal (z-score),[45],-0.346
same,glycan array binding signal (z-score),[46],-0.345
same,glycan array binding signal (z-score),[47],-0.321
same,glycan array binding signal (z-score),[48],-0.266
same,glycan array binding signal (z-score),[49],0.538
same,glycan array binding signal (z-score),[50],-0.291
same,glycan array binding signal (z-score),[51],3.35
same,glycan array binding signal (z-score),[52],4.05
same,glycan array binding signal (z-score),[53],-0.102
same,glycan array binding signal (z-score),[54],-0.079
same,glycan array binding signal (z-score),[55],-0.154
same,glycan array binding signal (z-score),[56],-0.219
same,glycan array binding signal (z-score),[57],-0.108
same,glycan array binding signal (z-score),[58],0.017
same,glycan array binding signal (z-score),[59],-0.138
same,glycan array binding signal (z-score),[60],-0.147
